Measured values as given in paper PMC4336329 (PLoS ONE, 2015).
Screen size: about 310,000 compounds; about 2,200 (0.71%) showed an effect of 50% or more. The effect is printed as a negative number. Some of the results follow.

molecular target: human ether-à-go-go-related gene (hERG) potassium channel (human, UniProt Q12809); assay: primary screen, population patch clamp on CHO cells stably expressing hERG
Sequence (Q12809 whole entry, looked up): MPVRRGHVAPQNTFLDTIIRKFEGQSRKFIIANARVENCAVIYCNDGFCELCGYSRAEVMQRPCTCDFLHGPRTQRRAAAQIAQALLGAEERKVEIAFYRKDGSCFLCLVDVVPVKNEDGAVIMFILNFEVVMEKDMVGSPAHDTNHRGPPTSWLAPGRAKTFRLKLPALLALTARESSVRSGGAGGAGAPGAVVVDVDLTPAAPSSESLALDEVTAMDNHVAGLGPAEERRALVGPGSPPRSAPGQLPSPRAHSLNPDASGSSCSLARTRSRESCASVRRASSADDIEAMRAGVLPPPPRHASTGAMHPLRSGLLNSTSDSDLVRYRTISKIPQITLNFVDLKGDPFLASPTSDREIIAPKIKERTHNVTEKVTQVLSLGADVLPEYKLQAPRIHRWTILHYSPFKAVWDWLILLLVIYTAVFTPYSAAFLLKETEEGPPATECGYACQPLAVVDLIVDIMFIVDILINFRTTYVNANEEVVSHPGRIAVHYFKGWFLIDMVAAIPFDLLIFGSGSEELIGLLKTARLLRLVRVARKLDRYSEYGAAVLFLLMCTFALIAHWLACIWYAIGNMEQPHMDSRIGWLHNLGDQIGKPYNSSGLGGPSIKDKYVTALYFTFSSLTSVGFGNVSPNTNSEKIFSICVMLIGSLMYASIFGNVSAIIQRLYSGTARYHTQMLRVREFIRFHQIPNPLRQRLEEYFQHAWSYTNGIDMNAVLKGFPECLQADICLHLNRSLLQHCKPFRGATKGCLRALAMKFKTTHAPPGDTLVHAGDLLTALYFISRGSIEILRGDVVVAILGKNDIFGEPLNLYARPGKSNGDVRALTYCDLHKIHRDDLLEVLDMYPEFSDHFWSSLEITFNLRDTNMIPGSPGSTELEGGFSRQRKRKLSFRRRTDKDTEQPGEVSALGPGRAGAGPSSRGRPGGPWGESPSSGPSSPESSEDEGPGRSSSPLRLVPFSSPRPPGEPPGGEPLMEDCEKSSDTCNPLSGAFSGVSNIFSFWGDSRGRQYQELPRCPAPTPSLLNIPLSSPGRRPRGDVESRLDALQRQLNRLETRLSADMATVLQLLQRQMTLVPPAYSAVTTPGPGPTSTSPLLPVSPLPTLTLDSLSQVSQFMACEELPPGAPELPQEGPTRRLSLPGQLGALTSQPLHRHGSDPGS

Row | Compound | hERG current change (%, negative = inhibition) at 1uM [%]
1 | Cc1ccc(S(=O)(=O)Nc2cc3c4c(c2)CCN4C(=O)CC3)cc1 | 7.2
2 | CCc1cccc(OCC(=O)Nc2ccc(S(=O)(=O)N3CCCC3)cc2)c1 | 4.83
3 | Cc1nn(-c2ccccc2)c2nc(N)c(C#N)c(-c3ccc(O)c(O)c3)c12 | 11.3
4 | CCOC(=O)c1ccc(NC(=O)C2C3CCC(C3)C2C(=O)O)cc1 (centres unmarked) | 13.5
5 | CCOC(=O)/C=C/[C@H]1CCc2cccc(C)c2O1 | 14.4
6 | Cc1cc(C)n(S(=O)(=O)c2ccccc2[N+](=O)[O-])n1 | 15.3
7 | COCCn1c(C)cc(C(=O)COC(=O)c2ccc(-n3nc(C)cc3C)cc2)c1C | 12.6
8 | COc1ccc(S(=O)(=O)CC(=O)Nc2ccccc2Cl)cc1 | 13.3
9 | C=C(C)CSc1nnc2n(C)c(=O)c3c4c(sc3n12)CCC4 | 11
10 | CN(CC(=O)NC1CCCCCC1)S(=O)(=O)c1ccc2c(c1)n(C)c(=O)c(=O)n2C | 10.7
11 | Cc1c(C(=O)NCc2ccco2)sc2nc(-c3ccccc3)cn12 | 1.11
12 | N#CC(C#N)=C1C(=O)N(CCN2CCCCC2)c2ccccc21 | 3.75
13 | CCc1ccccc1N=C1S/C(=C/c2ccccc2OCC(=O)N2CCOCC2)C(=O)N1C | 3.66
14 | O=c1c2ccccc2c(=O)n(-c2ccccc2)n1CCCCBr | 9.19
15 | CCOC(=O)C(CCCOc1ccccc1C)C(=O)OCC | 11.2
16 | Cc1cc(OCC(=O)NCCO)ccc1Cl | 11.2
17 | CCCCc1nnc(NC(=O)C23CC4CC(CC(NC(C)=O)(C4)C2)C3)s1 | 6.61
18 | COc1ccccc1C1N(c2ccc(Cl)cc2)C(=O)C2CCCN21 (centres unmarked) | 19.1
19 | Cl.N=c1n(Cc2ccc(Cl)cc2)c2ccccc2n1CC(O)COc1ccccc1 (centres unmarked) | -17.1
20 | N#CC(C(=O)NC1CC1)c1nc2ccccc2nc1N1CCCC1 (centres unmarked) | -4.38
21 | O=C(O)C1CCC(=O)N1C1CCCC1 (centres unmarked) | 11
22 | CCOC(=O)CCC(NC(=O)CCC(=O)NC(CCC(=O)OCC)C(=O)OCC)C(=O)OCC (centres unmarked) | 16.1

Row | Compound | hERG current change (%, negative = inhibition) at 1uM [%]
23 | CS(=O)(=O)NN1C(=O)c2ccccc2NC1c1c[nH]c2ccccc12 (centres unmarked) | 8.81
24 | Cc1c(Cl)cccc1NC(=O)CCC(=O)N/N=C/c1ccco1 | 23.6
25 | COc1ccccc1NC(=O)C1CC(=O)OC1c1ccccc1 (centres unmarked) | 4.27
26 | COc1cc(OC)cc(C2(C#N)CCN(C)CC2)c1 | 3.75
27 | Cc1onc(-c2ccccc2)c1C(=O)OCC(=O)N(CC(C)C)c1c(N)n(Cc2ccccc2)c(=O)[nH]c1=O | 10.2
28 | COc1ccc(CNC(=O)CSc2ccc(Br)cc2)cc1OC | -39.7
29 | CC1CCCCN1C(=O)c1ccccc1OC1CCN(S(C)(=O)=O)CC1 (centres unmarked) | 15.1
30 | COc1ccc(CCn2c(=N)c(S(=O)(=O)c3ccc(Cl)cc3)cc3c(=O)n4ccccc4nc32)cc1 | 13.5
31 | CCN(CC)c1ccc(NC(=O)CN2CCN(c3ccccn3)CC2)cc1 | 4.56
32 | CN(Cc1ccon1)C(=O)CCc1nnc(Cc2ccc(-c3ccccc3)cc2)o1 | 3.12
33 | COc1cc2c(cc1OC)[C@@]13CCN4CC5=CCO[C@H]6CC(=O)N2[C@H]1[C@H]6[C@H]5C[C@H]43 | 6.04
34 | Cc1ccc(NC2CCCCC2NS(=O)(=O)c2ccc(Cl)cc2)cc1 (centres unmarked) | 2.95
35 | CCCCNC(=O)c1c(N)n(/N=C/c2ccccn2)c2nc3ccccc3nc12 | 4.47
36 | O=C(c1ccc(F)cc1)c1ccc(N2CCCC2)cc1 | -7.39
37 | CC(C)C(C(=O)Nc1ccccc1)N1C(=O)c2ccccc2C1=O (centres unmarked) | 8.99
38 | COc1ccccc1OCC(=O)NC1CC(C)(C)NC(C)(C)C1 | 11.2
39 | Cc1ccccc1CN1CCC(CNC(=O)C2CCCN(c3ncnc4c3nc3n4CCCCC3)C2)CC1 (centres unmarked) | 2.84
40 | COc1ccc(C(=O)NCC(=O)OCC(=O)N2CCN(S(=O)(=O)c3ccccc3)CC2)cc1 | 20.8
41 | NCC(CC(=O)O)C1CCCCC1 (centres unmarked) | 9.81
42 | COc1ccc(NC(=O)c2ccco2)c2ccccc12 | 3.98
43 | O=C(Cc1n[nH]c(=O)[nH]c1=O)N/N=C/c1ccccc1O | 14.3
44 | O=C(COC(=O)c1cc(S(=O)(=O)N2CCCCC2)ccc1N1CCOCC1)NC1CCS(=O)(=O)C1 (centres unmarked) | 9.54

Row | Compound | hERG current change (%, negative = inhibition) at 1uM [%]
45 | C(=C\c1ccccc1)/CSc1nnc(-c2ccccc2)n1Cc1ccco1 | -45.4
46 | O=C(OCCOCCN=C1NS(=O)(=O)c2ccccc21)c1ccc(F)cc1 | 14.5
47 | CCOC(=O)/C(C#N)=C/c1cn(CCC(=O)O)nc1-c1ccc(Cl)cc1 | 12.4
48 | COc1cccc(C(=O)Nc2cccc(C(=O)N3CCOCC3)c2)c1 | 13
49 | Cc1c(NC(=O)C(C)OC(=O)CC2CC3CCC2C3)c(=O)n(-c2ccccc2)n1C (centres unmarked) | 7.13
50 | O=C(COC(=O)c1cccc(Cl)c1Cl)NC1CCCC1 | 10.2
51 | O=C(CN1CCN(c2ccc([N+](=O)[O-])cc2)CC1)Nc1nccs1 | -29.3
52 | COc1cc(/C=C/C(=O)OCC(=O)NCc2ccco2)ccc1O | 8.92
53 | c1ccc2c(c1)nnn2-c1ncnc2sc3c(c12)CCCC3 | -8.52
54 | COc1ccc(OC)c(NC(=O)c2c(NC(=O)CNCc3ccco3)sc3c2CCC3)c1 | 10.5
55 | Cc1ccc(CNc2nc3c([nH]2)c(=O)n(C)c(=O)n3C)cc1 | 5.14
56 | COc1cc(CCC(=O)OCC(=O)NCc2ccccc2)cc(OC)c1OC | 14.8
57 | COC(=O)c1sc2ccccc2c1NC(=O)c1ccc(S(=O)(=O)N2CCC(C)CC2)cc1 | -1.89
58 | CCOC(=O)C1CCN(C(=O)c2ccc(N(C)S(=O)(=O)c3ccc(OC)cc3)cc2)CC1 | -6.69
59 | O=P(C(c1c[nH]c2ccccc12)N1CCOCC1)(N1CCOCC1)N1CCOCC1 (centres unmarked) | -5.85
60 | C=CCN(CC=C)CCOc1cccc(Oc2ccccc2)c1.O=C(O)C(=O)O | 8.77
61 | CCOc1ccccc1N1CCN(C(=O)Nc2ccc(F)c(Cl)c2)CC1 | 3.05
62 | CCc1nn(C(C)C(=O)NCCc2ccccc2)c(=O)c2cc3occc3n12 (centres unmarked) | -12.5
63 | O=C(Cn1cnc([N+](=O)[O-])n1)N/N=C/c1cc(Cl)ccc1O | 15.3
64 | O=C(NCCc1ccc(Cl)cc1)c1ccc(S(=O)(=O)N2CCCC2)cc1 | 13
65 | CC(C)(C)C(=O)Cn1nc(Cl)nc1Cl | 2.97
66 | COc1ccc(-c2cc(C3CCN(C(=O)OC(C)(C)C)CC3)[nH]n2)cc1 | -10.2

Row | Compound | hERG current change (%, negative = inhibition) at 1uM [%]
67 | COc1ccc(N2CCN(c3oc(COc4ccc(Cl)cc4)nc3C#N)CC2)cc1 | 11.6
68 | COc1cc(C(=O)NCC(C)C)cc(OC)c1OC | 2.16
69 | C#CCOCCOCCOCCNc1nc(N2CCN(C(=O)[C@H](CCCCN)n3cc([C@@H](N)CO)nn3)CC2)nc(N2CCN(C(=O)[C@H](Cc3ccc(O)cc3)n3cc([C@@H](N)CC(C)C)nn3)CC2)n1.Cl | 7.71
70 | CCOC(=O)CC(=O)CSc1ccc2nnc(-c3ccc(F)cc3)n2n1 | -6.85
71 | COc1cc(Cl)ccc1OCc1cc(C(=O)N2C[C@@H]3CCC[C@H]2C3)no1 | -1.75
72 | COc1ccc(OC)c(C2=NS(=O)(=O)N(C)C(C(=O)Nc3cccc(C(C)=O)c3)=C2)c1 | 10.7
73 | COc1ccc(CCN2C(=O)C3C4CCC(C4=C(C)C)C3C2=O)cc1OC (centres unmarked) | 20.4
74 | COc1ccc(/C=C(\NC(=O)c2ccc(C)cc2)C(=O)NCC2CCCO2)cc1 (centres unmarked) | 7.69
75 | COc1cccc(CC(=O)OCC(=O)NC(Cc2ccccc2)C(C)=O)c1 (centres unmarked) | 10.5
76 | O=C(Nc1cccc(O)c1)c1cc(-c2ccc3c(c2)OCO3)on1 | 10.5
77 | O=C(Cc1ccc(-n2cccc2)cc1)NC1CCCCCC1 | -0.777
78 | COc1ccc(C(=O)Nc2cccc(OC(=O)c3ccc(C)c(C)c3)c2)cc1 | 4.55
79 | COc1ccc(/C=C/C(=O)Nc2ccccc2C(=O)O)cc1OC | 1.14
80 | O=C(Nc1cccc(NC(=O)c2ccco2)c1)c1ccccc1 | 8.64
81 | Cc1ccc(-c2c[n+]3c(n2-c2ccccc2)SCC3)cc1.[Br-] | 3.99
82 | CC(=O)c1sc(NC(=O)C2CCN(C(=O)c3ccccc3C)CC2)nc1-c1ccccc1 | 3.01
83 | N#CC(=C1Nc2ccccc2N1)S(=O)(=O)c1ccccc1 | 12.6
84 | O=C(CN(c1ccccc1F)S(=O)(=O)c1ccccc1)NC1CCCCCC1 | 0.113
85 | O=C(COC(=O)[C@@H]1CCCN1S(=O)(=O)c1ccc(Cl)cc1)NC1CCS(=O)(=O)C1 (some centres unmarked) | 3.16
86 | O=[N+]([O-])c1ccc(S(=O)(=O)NCC2COc3ccccc3O2)cc1 (centres unmarked) | 6.48
